In US12338279B2, “Selective and potent inhibitory antibodies of myostatin activation” (SCHOLAR ROCK, INC., priority 2022, dated 2025):
“Also recorded” adds a separate entry of the source.

Columns and labels:
[1] = AC-SINS self-interaction (aggregation behavior); format: physicochemical; conditions: cutoff shift >5 nm in plasmon wavelength
Outline: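 Antibodies captured on gold nanoparticles coated with polyclonal anti-human-mAb antibodies; self-association shifts the plasmon absorbance maximum toward red. Value reported as plasmon wavelength, with 530 nm as unaggregated reference; shift >5 nm taken as self-interacting.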

[2] = system: dexamethasone-induced muscle atrophy in C57BL6 male mice; experiment: Dexamethasone-induced muscle atrophy mouse model; format: in vivo
Outline: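 Male C57BL6 mice (13-14 weeks, n=8) received dexamethasone in drinking water at 2.5 mg/kg for 14 days. Antibodies, PBS or human IgG were dosed on days 1 and 7, at 0.3–10 mg/kg in the dose-ranging study. Lean/muscle mass was measured by qNMR, with gastrocnemius and quadriceps weights and serum myostatin at day 14; ANOVA with Dunnett's test.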

total myostatin in serum = experiment: Circulating total myostatin in serum (acidification ELISA), dexamethasone model; format: in vivo, mouse; conditions: for Circulating total myostatin levels: terminal serum
Description: Briefly, serum samples were acidified at low pH (e.g., pH ˜2.5) to dissociate the bound antibody from the immune complex and to convert all myostatin in the sample to the active form of growth factor (i.e., mature myostatin). Samples were then neutralized and assayed for the presence of mature myostatin on ELISA plates coated with anti-mature myostatin antibodies as capture reagents.

circulating leptin = experiment: Circulating leptin (U-PLEX Metabolic Hormones Combo 1), Example 6; format: in vivo, mouse; conditions: for Leptin Day 64 (circulating leptin): 60%/45% high fat diet
Description: Circulating leptin was measured using the U-PLEX Metabolic Hormones Combo 1 (mouse) according to manufacturer's instructions (Meso Scale Diagnostics, #K15306K-2). As expected, circulating leptin was higher in animals fed the high fat diet than animals fed a standard chow.

[3] = system: male C57/BL6 mice on high fat diet; experiment: Diet-induced obesity model, Ab109 with 0.01 or 0.04 mg/kg semaglutide (Example 9); format: in vivo, mouse
Description: Male C57/BL6 male mice (n=8/group) were placed on a 60% high fat diet at ˜6 weeks of age and maintained on the 60% high fat diet until 21 weeks of age (Groups 1-12), at which time the study began (day −7). On day −7, animals in groups 1-12 were switched to a 45% high fat diet and maintained on the 45% high fat diet until the animals were terminated. […] Body weight was measured three times per week and qNMR measurements of lean mass and fat mass were obtained pre-dose on day 0 and on days 7, 14 and 21. Fasting glucose was measured on day 18 after a 4 hour fast.
Animals in groups 3-12 were dosed with semaglutide daily for 3 weeks, then terminated. Animals in groups 1, 3, and 4 were treated with IgG control antibody, and those in groups 2, 5-12 were treated with myostatin activation inhibiting antibody treatment, for 3 weeks.
At termination, left gastrocnemius and quadriceps muscles were removed and frozen; the liver was weighed, one lobe was frozen; epididymal (perigonadal) adipose tissue was removed and weighed; inguinal (subcutaneous) adipose tissue was removed and weighed; and a terminal serum bleed was obtained.

[4] = Pharmacokinetics of Ab109 in non-human primates, subcutaneous or intravenous; format: in vivo, Cynomolgus macaques
Description: • [1] A preliminary analysis of the pharmacokinetics of subcutaneous or intravenous dosing of Ab109 was determined in non-human primates following a single dose of Ab109 in five groups, each comprising three Cynomolgus macaques. Groups 1-4 were dosed subcutaneously with 0.3, 3, 10 or 30 mg/kg antibody, respectively. […] Samples were taken at day −1 (pre-dose), 1-hour and 8-hour post-dose, and at days 1, 3, 4, 5, 7, 10, 14, 17, 21, 28, 35, 42, 56 and 63 post-dose. An interim pharmacokinetic analysis was performed on samples up to 28 days post-dose.

B1: Ab109: anti-pro/latent myostatin antibody; CDRs in Tables 2d-f, variable domains Table 3, chains Table 4 (antibody)
heavy: EVQLVESGGGLVQPGGSLRLSCAASGFTFSSYGMSWVRQAPGKGLELVASFTGSGGTYYPDSVKGRFTISRDNAKNSLYLQMNSLRAEDTAVYYCARDLLIRFLEWSHYYGMDVWGQGTTVTVSSASTKGPSVFPLAPCSRSTSESTAALGCLVKDYFPEPVTVSWNSGALTSGVHTFPAVLQSSGLYSLSSVVTVPSSSLGTKTYTCNVDHKPSNTKVDKRV[human IgG4 Fc with S228P (EU numbers) left out]
light: DIVMTQSPLSLPVTPGEPASISCRSSQSLLHSSGHNFLHWYLQKPGQSPQLLIYEVSNRVSGVPDRFSGSGSGTDFTLKISRVEAEDVGVYYCMQQTQYPPTFGGGTKVEIKRTVAAPSVFIFPPSDEQLKSGTASVVCLLNNFYPREAKVQWKVDNALQSGNSQESVTEQDSKDSTYSLSSTLTLSKADYEKHKVYACEVTHQGLSSPVTKSFNRGEC
For B1, the “aggregation behavior by AC-SINS” value [1] was “did not display aggregation behavior”, the “body weight of dexamethasone treated mice” value ([2]; 3 mg/kg/day, FIG. 6A, FIG. 9A) was “maintained the body weight of the dexamethasone treated mice to a greater extent than Ab2” and the “lean mass by qNMR in dexamethasone treated mice” value ([2]; 3 mg/kg/day, FIG. 6B, FIG. 9B) was “preserved the lean mass of the mice to a greater degree than the 10 mg/kg/day Ab2 treatment”. The “gastrocnemius weight in dexamethasone treated mice” value ([2]; 3 mg/kg/day, FIG. 6C, FIG. 9C) was “highly effective in preserving gastrocnemius weight”, the “quadriceps weight in dexamethasone treated mice” value ([2]; FIG. 9D) was “highly effective in preserving quadriceps weight” and the “body weight loss in dexamethasone treated mice” value ([2]; doses 0.3-10 mg/kg on day 1 and day 7, dose as in the words, FIG. 7A, FIG. 10A) was “prevented dexamethasone-induced weight loss; also recorded: the 1 mg/kg dose of Ab109 was equally as effective as the 10 mg/kg dose of Ab 2; also recorded: efficacious in preserving body weight; also recorded: improved efficacy compared to Ab2 at 10, 3, and 1 mg/kg”. For the same molecule, the “lean mass by qNMR in dexamethasone treated mice” value ([2]; doses 0.3-10 mg/kg, dose as in the words, FIG. 7B, FIG. 10B) was “attenuated the loss of lean mass; also recorded: greater efficacy at both 3 mg/kg and 10 mg/kg compared to either Ab2 or Ab133 at 3 mg/kg and 10 mg/kg; also recorded: At doses of both 10 mg/kg and 3 mg/kg, Ab109 showed greater efficacy in preserving lean mass than Ab2”, the “gastrocnemius muscle weight in dexamethasone treated mice” value ([2]; doses 0.3-10 mg/kg, dose as in the words, FIG. 7C, FIG. 10C) was “more efficacy at all four doses as compared to Ab2 at 3 mg/kg” and the “quadriceps muscle weight in dexamethasone treated mice” value ([2]; doses 0.3-10 mg/kg, dose as in the words, FIG. 7D, FIG. 10D) was “more efficacy at all four doses as compared to Ab2 at 3 mg/kg”. For the same molecule, the “accumulation of total or latent myostatin in serum samples from dosed subjects” value (total myostatin in serum; as compared to apitegromab) was “little or no accumulation of total myostatin”, the “total circulating myostatin in serum” value (total myostatin in serum; dexamethasone-treated mice, FIG. 8, FIG. 15A) was “lower levels of total circulating myostatin as compared to Ab2 treatment; also recorded: decrease in serum myostatin” and the “Circulating total myostatin levels” value (total myostatin in serum; dose 0.3 mg/kg, dexamethasone-treated mice) was 159.6 ng/mL. For the same molecule, the “Circulating total myostatin levels” value (total myostatin in serum; dose 1 mg/kg, dexamethasone-treated mice) was 45.7 ng/mL, the “Circulating total myostatin levels” value (total myostatin in serum; dose 3 mg/kg, dexamethasone-treated mice) was 48.4 ng/mL and the “Circulating total myostatin levels” value (total myostatin in serum; dose 10 mg/kg, dexamethasone-treated mice) was “BLOQ”. For the same molecule, the “Leptin Day 64 (circulating leptin)” value (circulating leptin; Ab109 + semaglutide 0.04 mg/kg day 7-35 (regain arm)) was 21.71 ng/mL, the “Leptin Day 64 (circulating leptin)” value (circulating leptin; Ab109 + semaglutide 0.04 mg/kg day 7-63) was 12.4 ng/mL and the circulating leptin (circulating leptin; treatment arm as in the words, FIG. 14K) was “decreased circulating leptin in the semaglutide withdrawal group”. The fat mass loss ([3]; Ab109 in combination with 0.01 mg/kg semaglutide, FIG. 19B) was “improved fat mass loss compared to those treated with 0.01 mg/kg semaglutide and IgG control”, the fat mass loss ([3]; Ab109 in combination with 0.04 mg/kg semaglutide, FIG. 19A, 19C, 0.04 mg/kg) was “improved fat mass loss compared to IgG control with semaglutide; also recorded: improved fat mass loss in a dose-dependent manner” and the quadriceps weight ([3]; Ab109 in combination with semaglutide, FIG. 21A) was “prevented this muscle loss”. The gastrocnemius muscle weight ([3]; Ab109 in combination with semaglutide, FIG. 21B) was “prevented this muscle loss”, the “perigonadal fat pad loss” value ([3]; Ab109 in combination with semaglutide, FIG. 22A) was “only improved fat pad loss at select doses” and the “inguinal fat pad loss” value ([3]; Ab109 in combination with semaglutide, FIG. 22B) was “improved inguinal fat pad loss”. For the same molecule, the fat mass gain ([3]; Ab109 monotherapy without semaglutide, FIG. 19A) was 7%, the “increase in lean mass” value ([3]; Ab109 treatment alone, FIG. 20C) was 8.3% and the body weight ([3]; Ab109 with 0.01 mg/kg semaglutide, FIGS. 18A-B) was “maintained steady body weight”. The lean mass change ([3]; Ab109 with 0.04 mg/kg semaglutide, FIG. 20A) was “blunted these lean mass losses and helped maintain a close-to-neutral lean mass change at 3 mg/kg and 10 mg/kg of Ab109”, the “concentration of antibody in the serum across dose groups” value ([4]; single dose 0.3, 3, 10, 30 mg/kg s.c., FIG. 24) was “dose proportional” and the apparent bioavailability ([4]; subcutaneous vs intravenous 10 mg/kg, AUC0-28, interim analysis) was “greater than 85%”.
